{"source": "PubChem BioAssay AID1345083", "about": "(National Center for Advancing Translational Sciences (NCATS), 2018)", "note": "Among all 94,000 compounds or so, about 6,200 (6.6%) were called active. The shares of active, inactive and inconclusive entries below differ from those in the screen. Calls follow the shape of the dose curve; as a rule, active = well fitted inhibition curve with a large enough effect; inconclusive = small, poorly fitted or top-dose-only effect; inactive = flat fitted curve, though single readings scatter. Potencies beside an inconclusive call are fits to weak or partial responses and may not hold up. Potency is read from the fitted curve at half-maximal effect; tags tell the direction and shape of the fitted curve.", "data": [{"assay": "Cytotoxic Profiling in HEK 293 Cell Line of Diverse Libraries Using Quantitative High-Throughput Screening; also: nearly all actives have a fitted effect of over 60% in size", "settings": "HEK 293 viability, ATP luminescence (CellTiter-Glo), 48-72 h; series mostly up to 115 µM", "in_short": "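qHTS cytotoxicity; HEK 293, 250 cells/well; compound pinned; 48 or 72 hr, 37 degree Celsius, 5% CO2, 95% humidity; CellTiter-Glo, 10 min RT; luminescence (ATP).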", "values": [{"smiles": "Cc1cc(C)c2c(N3CCCC(OCc4cccnc4)C3)ncnc2n1", "note": "(stereo not drawn)", "Potency": "inconclusive: 79.4 µM [inhibitor, partial curve, poor fit]"}, {"smiles": "COc1ccc(-n2nc(C)c([C@H]3C=C[C@@H](OC(=O)Nc4ccc(Br)cc4)C3)c2C)cc1", "Potency": "inconclusive: 28.2 µM [inhibitor, full curve]"}, {"smiles": "Cn1ncc2c(C(=O)NC3CCCC3)cc(-c3ccccc3C(F)(F)F)nc21", "Potency": "inconclusive: 56.2 µM [inhibitor, partial curve, poor fit]"}, {"smiles": "O=C(c1ccccc1Cl)N1CCC(c2nn(-c3ccc(Cl)cc3)c(=O)[nH]2)CC1", "Potency": "inconclusive: 50.1 µM [inhibitor, partial curve, poor fit]"}, {"smiles": "Cc1ccc(OCc2nc(C3CCN(C(=O)NCc4ccc(F)cc4)CC3)no2)cc1", "Potency": "inconclusive: 35.5 µM [inhibitor, full curve, poor fit]"}, {"smiles": "Cc1ccccc1N1Cc2c(NCCc3ccccc3F)ncnc2N(C)CC1=O", "Potency": "inconclusive: 56.2 µM [inhibitor, partial curve, poor fit]"}, {"smiles": "Cc1nc2cc(C(=O)N3CCC(Cc4nncn4C(C)C)CC3)ccc2n1-c1ccc(C(C)C)cc1", "Potency": "inconclusive: 89.1 µM [inhibitor, single point]"}, {"smiles": "COc1ccccc1Nc1ccnc(N2CCCC(C(=O)NC(C)c3ccc(F)cc3)C2)n1", "note": "(stereo not drawn)", "Potency": "inconclusive: 11.2 µM [inhibitor, full curve, poor fit]"}, {"smiles": "O=C1COCC2(CN1Cc1ccc(F)cc1Cl)CN(c1ccc(C(F)(F)F)cn1)C2", "Potency": "inconclusive: 50.1 µM [inhibitor, partial curve, poor fit]"}, {"smiles": "Cc1cc(NC(=O)c2cc(-c3ccc[nH]3)n[nH]2)ccc1F", "Potency": "inactive"}, {"smiles": "O=C1[C@H]2CN(Cc3cc(F)cc(F)c3)C[C@H]2C(=O)N1CCc1ccccc1", "Potency": "inconclusive: 44.7 µM [inhibitor, partial curve, poor fit]"}, {"smiles": "CN1CC(=O)N(C2CCNC2)Cc2c(NC3CCOC3)ncnc21", "note": "(stereo not drawn)", "Potency": "inactive"}, {"smiles": "CN1CC(=O)N(c2ccccc2)Cc2c(NCc3cccc(C(F)(F)F)c3)ncnc21", "Potency": "inconclusive: 56.2 µM [inhibitor, partial curve, poor fit]"}, {"smiles": "COc1cccc(-c2cc(C(=O)N[C@@H](C)c3ncccc3C)[nH]n2)c1", "Potency": "inconclusive: 79.4 µM [inhibitor, partial curve]"}, {"smiles": "CC1(c2ccccc2)N(Cc2ncccn2)C(=O)OC12CCN(Cc1cccc(OC(F)(F)F)c1)CC2", "note": "(stereo not drawn)", "Potency": "active: 50.1 µM"}, {"smiles": "COc1cccc(CNC(=O)c2ccc3nc(-c4ccccn4)oc3c2)c1", "Potency": "inconclusive: 50.1 µM [inhibitor, partial curve]"}, {"smiles": "CNC(=O)c1cc(C2CC2)nc2onc(C3CCCN(C(=O)c4ccccc4Cl)C3)c12", "note": "(stereo not drawn)", "Potency": "inconclusive: 50.1 µM [inhibitor, partial curve, poor fit]"}, {"smiles": "CCc1nc2c(c(-c3ccc(Cl)cc3)n1)CN(Cc1ccc(OC)cc1)CC2", "Potency": "inconclusive: 79.4 µM [inhibitor, partial curve, poor fit]"}, {"smiles": "O=C(O)COc1ccc(-c2nccc3c2C(=O)N(Cc2cccc(C(F)(F)F)c2)CC(COc2ccccc2)O3)cc1", "note": "(stereo not drawn)", "Potency": "inactive"}, {"smiles": "COCC(=O)N1Cc2ccccc2OC2(CCN(C(C)C)CC2)C1", "Potency": "inactive"}, {"smiles": "COc1ccc(F)cc1-c1cccc(COc2ccc3c(cnn3CC[S+](C)(=O)[O-])c2)c1", "Potency": "inconclusive: 28.2 µM [inhibitor, full curve, poor fit]"}, {"smiles": "N#Cc1cccnc1-c1ccc(C(=O)N2CCC(NC(=O)Nc3ccccc3)CC2)cc1", "Potency": "inconclusive: 50.1 µM [inhibitor, partial curve, poor fit]"}, {"smiles": "COc1ccccc1C(=O)NCCn1ccn2nc(-c3ccc(C)c(C)c3)cc2c1=O", "Potency": "inactive"}, {"smiles": "COc1cccc(C(=O)N2CCC(N3C[C@H](O)C[C@H]3C(=O)N3CCC(C)CC3)CC2)c1", "Potency": "inactive"}, {"smiles": "O=C1CC(c2ccccc2)N(Cc2ccncc2)CCCN(C(=O)Cc2cccnc2)CCN1", "note": "(stereo not drawn)", "Potency": "inactive"}, {"smiles": "COc1ccccc1Cn1c(=O)c(C(=O)N2CCN(C(=O)c3cccc(Cl)c3)CC2)nc2cccnc21", "Potency": "inactive"}, {"smiles": "Cc1cc(C)n(C)c(=O)c1C(=O)NC1CCCc2nc(-c3ccccc3)ncc21", "note": "(stereo not drawn)", "Potency": "inactive"}, {"smiles": "O=C(Nc1cc(F)c(F)c(F)c1)N1CCC(Oc2ncccc2C(=O)N2CCCCC2)C1", "note": "(stereo not drawn)", "Potency": "inactive"}, {"smiles": "O=C1NCCCCCCN(C(=O)Cc2cccnc2)[C@@H]2C[C@@H](c3nc(-c4cnccn4)no3)C[C@H]12", "Potency": "inactive"}, {"smiles": "CC(C)CN1C(=O)C(C)(C)[S+](=O)([O-])[C@H]2CN(c3ccc(Oc4ccccc4)cc3)C[C@@H]21", "Potency": "inconclusive: 25.1 µM [inhibitor, full curve]"}, {"smiles": "CCN1Cc2cc(F)ccc2N(CC(O)Cc2ccccc2)CCC1=O", "note": "(stereo not drawn)", "Potency": "inconclusive: 100 µM [inhibitor, partial curve, poor fit]"}, {"smiles": "CCOC(=O)[C@H]1[C@@H](O)C(=O)N(Cc2ccccc2)C12CCN(C(=O)C1CC1)CC2", "Potency": "inconclusive: 79.4 µM [inhibitor, partial curve, poor fit]"}, {"smiles": "CC(=O)N(C1CC1)C1CCOC2(CCN(C(=O)CCc3nc4ccccc4s3)CC2)C1", "note": "(stereo not drawn)", "Potency": "inconclusive: 89.1 µM [inhibitor, single point]"}, {"smiles": "Cc1ccc(CN2CCCN(Cc3ccncc3)C(c3ccccc3)CC(=O)NCC2)o1", "note": "(stereo not drawn)", "Potency": "inconclusive: 89.1 µM [inhibitor, partial curve, poor fit]"}, {"smiles": "COc1cccc(CCC(=O)N2CCC3(CC2)NC(=O)N(c2ccccc2)N3)c1", "Potency": "inconclusive: 10 µM [inhibitor, full curve, poor fit]"}, {"smiles": "CCn1cc(CN2CCN(C(=O)c3cccs3)CC2)ccc1=O", "Potency": "inconclusive: 100 µM [inhibitor, partial curve, poor fit]"}, {"smiles": "O[C@H]1CC[C@@H](Cc2cc(-c3ccc(F)cc3)on2)O[C@@H]1CNCc1ccncc1", "Potency": "inactive"}, {"smiles": "CNC(=O)c1ccc2nc(-c3cccc(C)n3)oc2c1", "Potency": "inactive"}, {"smiles": "Cc1ccc(Nc2ccnc(N3CCC(C(=O)NCc4cccs4)CC3)n2)cc1", "Potency": "active: 17.8 µM"}, {"smiles": "COc1cccc(N2C(=O)NC(=NC3CCCC3)C23CCN(Cc2ccc(F)cc2)C3)c1", "note": "(stereo not drawn)", "Potency": "inconclusive: 89.1 µM [inhibitor, single point]"}, {"smiles": "Cc1nnc(-c2cc(-c3ccsc3)ccn2)n1Cc1ccccc1", "Potency": "inconclusive: 63.1 µM [inhibitor, partial curve, poor fit]"}, {"smiles": "O=C(Nc1ccc2ncnc(N3CCCCC3)c2c1)c1ccc(F)cc1", "Potency": "inconclusive: 44.7 µM [inhibitor, partial curve, poor fit]"}, {"smiles": "COc1ccc(C(=O)N2CCc3nc(C4CC4)nc(-c4ccc(Cl)cc4)c3C2)cc1", "Potency": "inactive"}, {"smiles": "CSCC[C@@H]1NC(=O)c2cc(NC(=O)c3ccc4ccn(C)c4c3)ccc2NC1=O", "Potency": "inconclusive: 89.1 µM [inhibitor, single point]"}, {"smiles": "O=c1c2nc(-c3ccsc3)ccc2ncn1Cc1ccccc1", "Potency": "inconclusive: 100 µM [inhibitor, partial curve, poor fit]"}, {"smiles": "COc1ccc(CN2C(=O)[C@@H]3C[C@@H](O)CN3C3(CNC3)C2=O)cc1", "Potency": "inconclusive: 63.1 µM [inhibitor, partial curve, poor fit]"}, {"smiles": "COc1ccc(-c2cc(CC3(NCc4ccccc4O)COC3)no2)cc1", "Potency": "active: 100 µM"}, {"smiles": "COc1ccc(N2Cc3c(ncnc3N3CCC(O)CC3)N(C)CC2=O)cc1", "Potency": "inactive"}, {"smiles": "Cc1ccc2c(n1)N(C)[C@H](CO)CCN(Cc1cccc3c1OCO3)C2", "Potency": "inconclusive: 35.5 µM [inhibitor, partial curve, poor fit]"}, {"smiles": "COc1ccc(-c2ccc(C(=O)NCc3ccc(F)cc3)cc2)nn1", "Potency": "inactive"}, {"smiles": "COc1ccccc1Nc1ccnc(N2CCCC(C(=O)NCCCc3ccccc3)C2)n1", "note": "(stereo not drawn)", "Potency": "active: 50.1 µM"}, {"smiles": "COc1cccc(NC(=O)N[C@H]2CCN(C(=O)C=C(C)C)[C@@H]2C(=O)N[C@H](Cc2ccccc2)C(N)=O)c1", "Potency": "inactive"}, {"smiles": "CCOCCNC(=O)c1cc(-c2cccc(C(F)(F)F)c2)c2cccn2n1", "Potency": "inconclusive: 28.2 µM [inhibitor, partial curve, poor fit]"}, {"smiles": "COc1ccc2cc(C(=O)N3CC(N(Cc4cccnc4)S(C)(=O)=O)C3)[nH]c2c1", "Potency": "inconclusive: 89.1 µM [inhibitor, single point]"}, {"smiles": "COc1ccc(C(=O)N2CCC[C@H]2c2nc(-c3ccc(OC)cc3)no2)cc1", "Potency": "inconclusive: 89.1 µM [inhibitor, single point]"}, {"smiles": "O=C(c1ccc(Cl)cc1)N1CCn2c(nn(-c3ccc([N+](=O)[O-])cc3)c2=O)C1", "Potency": "inactive"}, {"smiles": "COC(=O)[C@@H]1Cc2ncn(Cc3ccc(Cl)cc3)c2CN1Cc1ccc(NC(C)=O)cc1", "Potency": "inconclusive: 50.1 µM [inhibitor, partial curve, poor fit]"}, {"smiles": "COc1ccc(CN2CCNc3cnc(Oc4ccccc4)cc3C2)cc1O", "Potency": "active: 63.1 µM"}, {"smiles": "COc1ccc(-c2nc(C(C)C)nc3c2CN([S+](=O)([O-])c2cccc(OC)c2)CC3)cc1", "Potency": "inconclusive: 89.1 µM [inhibitor, single point]"}, {"smiles": "CN1CCC2(C1)CN(CC1CC1)c1ccc(C(=O)NC3CCCCC3)cc12", "note": "(stereo not drawn)", "Potency": "active: 89.1 µM"}, {"smiles": "Cc1cc(OC2CN([S+](=O)([O-])c3ccc(C(F)(F)F)cc3)C2)ccc1F", "Potency": "inconclusive: 70.8 µM [inhibitor, single point]"}, {"smiles": "CCOc1cccc(CNC(=O)[C@H]2CCC[C@H]2NC(=O)c2cnc(C)cn2)c1", "Potency": "inactive"}, {"smiles": "O=C(NCc1ccc(OC(F)(F)F)cc1)N1CCCC(Cn2cnc3cccnc32)C1", "note": "(stereo not drawn)", "Potency": "inconclusive: 50.1 µM [inhibitor, partial curve, poor fit]"}]}]}
